Data reported in the supplement of paper PMC10369915.
The list shows a part of the results. No stated cut-off is given here; in the data, active = 3.2 or more and inactive = the rest. Only a few entries rise above the background.

Key:
Assay in all cases: enrichment score (SH2-bound / input frequency) (ratio); bacterial display of known human phosphotyrosine sites (pTyr-Var adds point mutants) read by sequencing; higher = stronger binding; tyrosines were phosphorylated by kinases first
Conditions in all cases: peptide library: Human pTyr
SHP2 C-SH2 domain E139D = molecular target: SHP2 C-SH2 domain E139D
[1] = molecular target: SHP2 C-SH2 domain wild-type
SHP2 N-SH2 domain L43F = molecular target: SHP2 N-SH2 domain L43F
SHP2 N-SH2 domain T42A = molecular target: SHP2 N-SH2 domain T42A
SHP2 N-SH2 domain T52S = molecular target: SHP2 N-SH2 domain T52S
[2] = molecular target: SHP2 N-SH2 domain wild-type
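Further: displayed peptides selected on beads carrying the immobilized SH2 domain, with library peptides lacking any tyrosine serving as negative controls.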

Row | Binder | enrichment score (SHP2 C-SH2 domain E139D) | enrichment score [1] | enrichment score (SHP2 N-SH2 domain L43F) | enrichment score (SHP2 N-SH2 domain T42A) | enrichment score (SHP2 N-SH2 domain T52S) | enrichment score [2]
1 | FFKVPELYEIHKEFY [BCR_HUMAN_554] | inactive: 1.71 | inactive: 2.1 | inactive: 1.59 | inactive: 1.7 | inactive: 1.64 | active: 3.21
2 | GVRWAKLYSLVIWGC [BDKRB2_HUMAN_177] | inactive: 2.9 | inactive: 2.78 | inactive: 2.24 | inactive: 2.37 | inactive: 2.51 | inactive: 2.84
3 | ADAEKPFYVNVEFHH [BCR_HUMAN_177] | inactive: 2.09 | inactive: 1.76 | inactive: 1.52 | inactive: 2.22 | inactive: 1.79 | inactive: 2.54
4 | KAHDGGIYAISWSPD [WDR1_HUMAN_238] | inactive: 0.85 | inactive: 0.617 | inactive: 0.618 | inactive: 1.18 | inactive: 0.825 | inactive: 0.825
5 | VSPSPTTYRMFRDKS [BCR_HUMAN_360] | inactive: 1.11 | inactive: 0.865 | inactive: 1.47 | inactive: 0.748 | inactive: 0.924 | inactive: 1
6 | GMDPSDIYAVIQIPG [ZCHC3_HUMAN_202] | inactive: 1.36 | inactive: 2.5 | inactive: 0.861 | inactive: 1.06 | inactive: 0.94 | inactive: 0.828
7 | AETSKLIYDFIEDQG [WASP_HUMAN_291] | inactive: 0.971 | inactive: 0.959 | inactive: 1.45 | inactive: 1.1 | inactive: 1.11 | inactive: 0.887
8 | IHTGDRPYVCPFDGC [YY1_HUMAN_383] | inactive: 0.575 | inactive: 0.617 | inactive: 0.71 | inactive: 0.636 | inactive: 0.626 | inactive: 0.636
9 | KLHCIVTYCEACQEE [ZMYM2_HUMAN_680_YA] | inactive: 1.47 | inactive: 1.54 | inactive: 1.31 | inactive: 1.41 | inactive: 1.68 | inactive: 2.04
10 | CFSKDKVFGDFFKVC [NegativeControl11_Phe] | inactive: 1.27 | inactive: 1.22 | inactive: 1.25 | inactive: 1.21 | inactive: 1.3 | inactive: 1.24
11 | SPPDYSEYMTGKKLP [YY1_HUMAN_254] | inactive: 0.647 | inactive: 0.463 | inactive: 0.661 | inactive: 0.573 | inactive: 0.522 | inactive: 0.7
12 | NFANNCRAVQAEGCQ [NegativeControl06_Ala] | inactive: 0.788 | inactive: 0.536 | inactive: 0.613 | inactive: 0.706 | inactive: 0.635 | inactive: 0.613
13 | AEAAASAYANPGNPH [WBP2_HUMAN_231_YA] | inactive: 0.825 | inactive: 0.551 | inactive: 0.616 | inactive: 0.54 | inactive: 0.58 | inactive: 0.597
14 | MMDGAMGYVQPPPPP [WBP2_HUMAN_192] | inactive: 0.513 | inactive: 0.39 | inactive: 0.471 | inactive: 0.527 | inactive: 0.493 | inactive: 0.464
15 | DPEEDEEYARKQLSA [ZO1_HUMAN_1354_YA] | inactive: 1.39 | inactive: 0.974 | inactive: 0.917 | inactive: 1.3 | inactive: 0.965 | inactive: 1.26
16 | YQPYQSIYVGGMMEG [BCR_HUMAN_283] | inactive: 0.977 | inactive: 0.893 | inactive: 0.649 | inactive: 0.7 | inactive: 0.812 | inactive: 0.9
17 | FTLRCPCALLCMCES [NegativeControl03_Ala] | inactive: 1.56 | inactive: 1.58 | inactive: 1.49 | inactive: 1.78 | inactive: 2.02 | inactive: 1.95
18 | TMPDGKLYNFCNSSC [ZMYM2_HUMAN_605] | inactive: 0.851 | inactive: 0.615 | inactive: 1.18 | inactive: 0.718 | inactive: 0.764 | inactive: 0.787

Row | Binder | enrichment score (SHP2 C-SH2 domain E139D) | enrichment score [1] | enrichment score (SHP2 N-SH2 domain L43F) | enrichment score (SHP2 N-SH2 domain T42A) | enrichment score (SHP2 N-SH2 domain T52S) | enrichment score [2]
19 | FDFSGWKADHAAATP [NegativeControl02_Ala] | inactive: 0.684 | inactive: 0.833 | inactive: 0.797 | inactive: 0.702 | inactive: 0.825 | inactive: 0.721
20 | IHTGEKPYACLECGK [ZN787_HUMAN_122] | inactive: 1.17 | inactive: 1.4 | inactive: 0.796 | inactive: 1.36 | inactive: 0.873 | inactive: 0.998
21 | SHFECTCAVSIASTF [NegativeControl05_Ala] | inactive: 1.39 | inactive: 1.19 | inactive: 1.28 | inactive: 1.32 | inactive: 1.58 | inactive: 1.49
22 | IEKVVAIYDYTKDKD [ABI1_HUMAN_455] | inactive: 1.05 | inactive: 0.802 | inactive: 0.854 | inactive: 0.851 | inactive: 0.984 | inactive: 0.703
23 | KRNSLPQYQATMPDG [ZMYM2_HUMAN_595] | inactive: 1.02 | inactive: 0.781 | inactive: 0.925 | inactive: 0.879 | inactive: 1.16 | inactive: 1.15
24 | NFANNCRFVQAEGCQ [NegativeControl06_Phe] | inactive: 0.575 | inactive: 0.539 | inactive: 0.547 | inactive: 0.604 | inactive: 0.547 | inactive: 0.584
25 | DTDSINLYKNMRETL [XPO1_HUMAN_454] | inactive: 0.668 | inactive: 0.715 | inactive: 0.704 | inactive: 0.855 | inactive: 0.542 | inactive: 0.86
26 | GVVGGEDYEEVDRYS [ZN598_HUMAN_306] | inactive: 0.743 | inactive: 0.753 | inactive: 0.788 | inactive: 0.668 | inactive: 0.681 | inactive: 0.684
27 | ERQLNGTYAIAGGKA [ZAP70_HUMAN_69] | inactive: 0.714 | inactive: 0.574 | inactive: 0.723 | inactive: 0.556 | inactive: 0.553 | inactive: 0.756
28 | IHSGEKPYECVECGK [ZN264_HUMAN_511] | inactive: 1.02 | inactive: 0.666 | inactive: 0.665 | inactive: 0.876 | inactive: 0.688 | inactive: 0.687
29 | TTKDGWVYYANHTEE [WWOX_HUMAN_33] | inactive: 1 | inactive: 0.78 | inactive: 0.867 | inactive: 1.38 | inactive: 0.744 | inactive: 0.814
30 | VSTSVSHYGAEPTTV [YES_HUMAN_32] | inactive: 0.633 | inactive: 0.554 | inactive: 0.688 | inactive: 0.605 | inactive: 0.683 | inactive: 0.406
31 | DPEEDEEYYRKQLSY [ZO1_HUMAN_1354] | inactive: 0.984 | inactive: 1.09 | inactive: 1.06 | inactive: 1.1 | inactive: 1.22 | inactive: 1.09
32 | IHTGEKPYECVQCGK [ZNF24_HUMAN_335] | inactive: 0.749 | inactive: 0.734 | inactive: 0.641 | inactive: 0.802 | inactive: 1.29 | inactive: 0.86
33 | EAQYQREYSEFKRQQ [BECN1_HUMAN_233] | inactive: 0.826 | inactive: 0.631 | inactive: 0.687 | inactive: 0.696 | inactive: 0.764 | inactive: 0.667
34 | SEWRPFGYPRRRRPL [BCS1_HUMAN_181] | inactive: 0.671 | inactive: 0.588 | inactive: 0.712 | inactive: 0.574 | inactive: 0.597 | inactive: 0.545
35 | SHFECTCFVSIASTF [NegativeControl05_Phe] | inactive: 1.61 | inactive: 1.48 | inactive: 1.47 | inactive: 1.62 | inactive: 1.84 | inactive: 2.01
36 | MASGDTLYIATDGSE [YY1_HUMAN_8] | inactive: 0.551 | inactive: 0.46 | inactive: 0.6 | inactive: 0.512 | inactive: 0.515 | inactive: 0.742
